# In the supplement of paper PMC8728848:
# This is one part of the list.
# How the values were obtained:
# Assay in all cases: glycan array binding signal (z-score within array); higher = stronger binding
# Conditions in all cases: glycan notation: IUPAC condensed, linker removed
# Gal6S(b1-4)Glc6S = target: Gal6S(b1-4)Glc6S
# Outline: (§1)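 Glycan array binding is given as a within-array Z-score, which can be read as non-binding when negative. The arrays, 3228 of them, came from the Consortium for Functional Glycomics database and were retained only where the protein sequence was available. Z-scores were averaged across arrays of the same protein sequence at different concentrations or buffers and across linkers.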
# Gal6S(b1-4)GlcNAc = target: Gal6S(b1-4)GlcNAc
# Outline: as §1
# Gal6S(b1-4)GlcNAc6S = target: Gal6S(b1-4)GlcNAc6S
# Outline: as §1
# GalNAc(a1-3)Gal = target: GalNAc(a1-3)Gal
# Outline: as §1
# GalNAc(a1-3)GalNAc = target: GalNAc(a1-3)GalNAc
# Outline: as §1
# [1] = target: GalNAc(a1-3)GalNAc(b1-3)Gal(a1-4)Gal(b1-4)Glc
# Outline: as §1
# [2] = target: GalNAc(a1-3)GalNAc(b1-3)Gal(a1-4)Gal(b1-4)GlcNAc
# Outline: as §1
# GalNAc(b1-3)Gal = target: GalNAc(b1-3)Gal
# Outline: as §1
# [3] = target: GalNAc(b1-3)Gal(a1-4)Gal(b1-4)GlcNAc
# Outline: as §1
# [4] = target: GalNAc(b1-3)Gal(a1-4)Gal(b1-4)GlcNAc(b1-3)Gal(b1-4)Glc
# Outline: as §1
# [5] = target: GalNAc(b1-3)Gal(a1-6)Gal(b1-4)Glc
# Outline: as §1
# GalNAc(b1-3)GalNAc = target: GalNAc(b1-3)GalNAc
# Outline: as §1
# GalNAc(b1-3)GlcNAc = target: GalNAc(b1-3)GlcNAc
# Outline: as §1
# GalNAc(b1-4)Gal(b1-4)Glc = target: GalNAc(b1-4)Gal(b1-4)Glc
# Outline: as §1
# GalNAc(b1-4)GlcNAc = target: GalNAc(b1-4)GlcNAc
# Outline: as §1
# [6] = target: GalNAc(b1-4)GlcNAc(b1-2)Man
# Outline: as §1
# [7] = target: GalNAc(b1-4)GlcNAc(b1-2)Man(a1-3)[GalNAc(b1-4)GlcNAc(b1-2)Man(a1-6)]Man(b1-4)GlcNAc(b1-4)GlcNAc
# Outline: as §1
# [8] = target: GalNAc(b1-4)GlcNAc(b1-3)GalNAc(b1-4)GlcNAc
# Outline: as §1
# GalNAc(b1-4)GlcNAc6S = target: GalNAc(b1-4)GlcNAc6S
# Outline: as §1
# GalNAc(b1-6)GalNAc = target: GalNAc(b1-6)GalNAc
# Outline: as §1
# GalNAc3S(b1-4)GlcNAc = target: GalNAc3S(b1-4)GlcNAc
# Outline: as §1
# GalNAc3S(b1-4)GlcNAc3S = target: GalNAc3S(b1-4)GlcNAc3S
# Outline: as §1
# [9] = target: GalNAc3S(b1-4)[Fuc(a1-3)]GlcNAc
# Outline: as §1
# GalNAc4S6S(b1-4)GlcNAc = target: GalNAc4S6S(b1-4)GlcNAc
# Outline: as §1
# GalNAc6S(b1-4)GlcNAc = target: GalNAc6S(b1-4)GlcNAc
# Outline: as §1
# Glc(a1-4)Glc = target: Glc(a1-4)Glc
# Outline: as §1
# [10] = target: Glc(a1-4)Glc(a1-4)Glc(a1-4)Glc
# Outline: as §1
# Glc(a1-6)Glc(a1-6)Glc = target: Glc(a1-6)Glc(a1-6)Glc
# Outline: as §1
# [11] = target: Glc(a1-6)Glc(a1-6)Glc(a1-6)Glc
# Outline: as §1
# Glc(b1-4)Glc = target: Glc(b1-4)Glc
# Outline: as §1
# Glc(b1-6)Glc = target: Glc(b1-6)Glc
# Outline: as §1
# GlcA(b1-3)Gal = target: GlcA(b1-3)Gal
# Outline: as §1
# GlcA(b1-3)GlcNAc = target: GlcA(b1-3)GlcNAc
# Outline: as §1
# GlcA(b1-6)Gal = target: GlcA(b1-6)Gal
# Outline: as §1
# [12] = target: GlcA3S(b1-3)Gal(b1-4)GlcNAc(b1-2)Man
# Outline: as §1
# [13] = target: GlcA3S(b1-3)Gal(b1-4)GlcNAc(b1-3)Gal(b1-4)Glc
# Outline: as §1
# [14] = target: GlcNAc(a1-3)Gal(b1-4)GlcNAc
# Outline: as §1
binder,measurement,setting,value
Cohesin-hDECTIN-1 (Homo sapiens) (protein) LDITSHHHHHHDDLDAVRIKVDTVNAKPGDTVRIPVRFSGIPSKGIANCDFVYSYDPNVLEIIEIEPGDIIVDPNPDKSFDTAVYPDRKIIVFLFAEDSGTGAYAITKDGVFATIVAKVKEGAPNGLSVIKFVEVGGFANNDLVEQKTQFFDGGVNVGDTTEPATPTTPVTTPTTTDDLDAASSSPCPPNWIIYEKSCYLFSMSLNSWDGSKRQCWQLGSNLLKIDSSNELGFIVKQVSSQPDNSFWIGLSRPQTEVPWLWEDGSTFSSNLFQIRTTATQENPSPNCVWIHVSVIYDQLCSVPSYSICEKKFM,glycan array binding signal (z-score),Gal6S(b1-4)Glc6S,0.622
same,glycan array binding signal (z-score),Gal6S(b1-4)GlcNAc,0.85
same,glycan array binding signal (z-score),Gal6S(b1-4)GlcNAc6S,2.84
same,glycan array binding signal (z-score),GalNAc(a1-3)Gal,2.65
same,glycan array binding signal (z-score),GalNAc(a1-3)GalNAc,0.527
same,glycan array binding signal (z-score),[1],0.028
same,glycan array binding signal (z-score),[2],-0.032
same,glycan array binding signal (z-score),GalNAc(b1-3)Gal,5.2
same,glycan array binding signal (z-score),[3],2.46
same,glycan array binding signal (z-score),[4],2.63
same,glycan array binding signal (z-score),[5],4.68
same,glycan array binding signal (z-score),GalNAc(b1-3)GalNAc,0.227
same,glycan array binding signal (z-score),GalNAc(b1-3)GlcNAc,3.33
same,glycan array binding signal (z-score),GalNAc(b1-4)Gal(b1-4)Glc,-0.401
same,glycan array binding signal (z-score),GalNAc(b1-4)GlcNAc,1.82
same,glycan array binding signal (z-score),[6],2.72
same,glycan array binding signal (z-score),[7],0.004
same,glycan array binding signal (z-score),[8],1.85
same,glycan array binding signal (z-score),GalNAc(b1-4)GlcNAc6S,1.69
same,glycan array binding signal (z-score),GalNAc(b1-6)GalNAc,-0.46
same,glycan array binding signal (z-score),GalNAc3S(b1-4)GlcNAc,-0.453
same,glycan array binding signal (z-score),GalNAc3S(b1-4)GlcNAc3S,-0.239
same,glycan array binding signal (z-score),[9],-0.609
same,glycan array binding signal (z-score),GalNAc4S6S(b1-4)GlcNAc,-0.296
same,glycan array binding signal (z-score),GalNAc6S(b1-4)GlcNAc,4.98
same,glycan array binding signal (z-score),Glc(a1-4)Glc,-0.37
same,glycan array binding signal (z-score),[10],-0.483
same,glycan array binding signal (z-score),Glc(a1-6)Glc(a1-6)Glc,-0.401
same,glycan array binding signal (z-score),[11],-0.297
same,glycan array binding signal (z-score),Glc(b1-4)Glc,-0.243
same,glycan array binding signal (z-score),Glc(b1-6)Glc,0.231
same,glycan array binding signal (z-score),GlcA(b1-3)Gal,-0.596
same,glycan array binding signal (z-score),GlcA(b1-3)GlcNAc,-0.33
same,glycan array binding signal (z-score),GlcA(b1-6)Gal,-0.483
same,glycan array binding signal (z-score),[12],-0.635
same,glycan array binding signal (z-score),[13],-0.469
same,glycan array binding signal (z-score),[14],-0.231
